# Experimental data published in PubChem BioAssay (Tox21).
# This list was built around the results that the source calls inconclusive (neither active nor inactive); the mix of calls is not that of the screen. For some assays here: No potency is given beside an inconclusive call; the fits are too rough. Active and inactive are the calls of the source. Unless noted, calls follow the shape of the dose curve; as a rule, active = well fitted curve in the direction sought with a large enough effect in the repeat runs; inconclusive = weak or mixed curves; inactive = no such curve, though single readings can be large; an effect the other way counts as inactive or inconclusive.
# Columns and labels:
# [1] = qHTS assay for small molecule agonists of the antioxidant response element (ARE) signaling pathway (AID 743202; active = well fitted activation curve with a large enough effect in the signal ratio in the repeat runs, not every such curve was filed as active; inconclusive = weak or mixed curves, or effect the other way; inactive = no such curve, though single readings can be large or run the other way; the % refers to the signal ratio; as to activation: % is scaled to controls: 0 for no effect and ±100 for the full control effect); details: HepG2 ARE-bla reporter, beta-lactamase FRET, 16 h; activation: at 73.3 µM (top of the series) unless noted
# Procedure, shortened: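 An ARE-responsive beta-lactamase gene stably integrated in HepG2 cells serves as reporter. After 5 h plating and 16 h compound incubation at 37 C, fluorescence of the B/G FRET substrate was measured.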
# [2] = qHTS assay for small molecule agonists of the antioxidant response element (ARE) signaling pathway - cell viability counter screen (AID 743203; calls by dose curve; also: nearly all actives have a fitted effect of over 55% in size); details: ARE-bla HepG2 viability, CellTiter-Glo luminescence, 16 h; viability change, negative = cytotoxic: at 73.3 µM (top of the series)
# Procedure, shortened: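 Seeded at 2,000 cells/well, ARE-bla HepG2 cells were incubated 5 hrs before compound addition. After 16 hrs of treatment at 37C with 5% CO2, CellTiter-Glo reagent was added and luminescence read 30 min later.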
# [3] = target: Peroxisome proliferator-activated receptor delta (Homo sapiens) (UniProt Q03181); experiment: qHTS assay to identify small molecule antagonists of the peroxisome proliferator-activated receptor delta (PPARd) signaling pathway (AID 743215; active = well fitted inhibition curve with a large enough effect in the signal ratio in the repeat runs, not every such curve was filed as active; inconclusive = weak or mixed curves, or effect the other way; inactive = no such curve, though single readings can be large or run the other way; the % refers to the signal ratio;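 also: cells stimulated with agonist L165041 at 300 nM final during compound exposure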; as to ratio activity, negative = inhibition: % is scaled to controls: 0 for no effect and ±100 for the full control effect); details: HEK293H PPARd-UAS-bla, beta-lactamase FRET ratio, antagonist, 17 h; ratio activity, negative = inhibition: at 62 µM (top of the series) unless noted
# UniProt Q03181, sequence (Q03181 whole entry, looked up): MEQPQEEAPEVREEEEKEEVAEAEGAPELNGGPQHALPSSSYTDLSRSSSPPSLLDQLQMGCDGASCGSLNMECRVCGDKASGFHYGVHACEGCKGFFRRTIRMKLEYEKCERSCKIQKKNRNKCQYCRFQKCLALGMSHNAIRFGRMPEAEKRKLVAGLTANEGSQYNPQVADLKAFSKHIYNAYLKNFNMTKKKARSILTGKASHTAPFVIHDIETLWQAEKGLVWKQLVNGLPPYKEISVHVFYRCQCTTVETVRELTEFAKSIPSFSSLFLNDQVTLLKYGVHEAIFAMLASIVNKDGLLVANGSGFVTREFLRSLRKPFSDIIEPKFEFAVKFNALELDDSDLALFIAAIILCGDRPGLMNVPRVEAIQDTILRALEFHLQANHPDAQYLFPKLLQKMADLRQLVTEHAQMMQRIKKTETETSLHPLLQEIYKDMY
# Procedure, shortened: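 Inhibition of L165041-driven (300 nM final) PPARd signaling is scored in HEK293H UAS-bla cells. Exposure lasts 17 h at 37 C; beta-lactamase activity is then read by FRET substrate fluorescence after 2 h at room temperature.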
# [4] = qHTS assay for small molecule activators of the heat shock response signaling pathway - cell viability counter screen (AID 743209); details: HSE-bla HeLa viability, CellTiter-Glo luminescence, 5 h; activity change, negative = cytotoxicity: at 62.6 µM (top of the series) unless noted; also: nearly all actives have a fitted effect of over 50% in size
# Procedure, shortened: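 First, HSE-bla HeLa cells were seeded at 1500 cells/well and kept overnight at 37 C. Next, compounds were pinned in and incubated 5 h. After the FRET substrate step, CellTiter-Glo was added and luminescence read 30 min later.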
# [5] = qHTS assay to identify small molecule agonists of the peroxisome proliferator-activated receptor delta (PPARd) signaling pathway - cell viability counter screen (AID 743211); details: PPARd-bla HEK293H viability, CellTiter-Glo luminescence, 17 h; activity change, negative = cytotoxicity: at 62.6 µM (top of the series); also: nearly all actives have a fitted effect of over 55% in size; as to activity change, negative = cytotoxicity: % is scaled to controls: 0 for no effect and ±100 for the full control effect
# Procedure, shortened: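 Counter screen for cytotoxicity run in parallel with the PPARd reporter screen. Beta-lactamase reporter HEK293H cells exposed to compounds 17 h; ATP-based CellTiter-Glo luminescence quantified viability.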
# [6] = qHTS assay for small molecule activators of the heat shock response signaling pathway (AID 743210; active = well fitted activation curve with a large enough effect in the signal ratio in the repeat runs, with a control signal flat, not every such curve was filed as active; inconclusive = weak or mixed curves; the % refers to the signal ratio); details: HeLa HSE-bla reporter, beta-lactamase ratio, 5 h; activation: at 62.6 µM (top of the series) unless noted
# Procedure, shortened: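 In HSE-bla HeLa cells, 5 h compound incubation (37 C) precedes addition of LiveBLAzer B/G substrate; after 2.5 h at room temperature, fluorescence intensity indicates reporter induction.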
# [7] = target: Peroxisome proliferator-activated receptor delta (Homo sapiens) (UniProt Q03181); experiment: qHTS assay to identify small molecule agonists of the peroxisome proliferator-activated receptor delta (PPARd) signaling pathway (AID 743212; calls by dose curve); details: HEK293H PPARd-UAS-bla, beta-lactamase FRET ratio, 17 h; activation: at 62.6 µM (top of the series) unless noted
# Procedure, shortened: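 HEK293H UAS-bla reporter cells, human PPARd system; compounds delivered in DMSO after 5 h plating, then at 37 C. Beta-lactamase FRET read, 2 h RT substrate step.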
# [8] = qHTS assay to identify small molecule antagonists of the peroxisome proliferator-activated receptor delta (PPARd) signaling pathway - cell viability counter screen (AID 743213); details: PPARd-bla HEK293H viability, CellTiter-Glo luminescence, 17 h; viability change, negative = cytotoxic: at 62 µM (top of the series) unless noted; also: nearly all actives have a fitted effect of over 50% in size
# Procedure, shortened: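 PPARd-bla HEK293H cells were treated with compounds plus agonist L165041 (300 nM final) for 17 h at 37 C. Viability was then read in the same wells by CellTiter-Glo luminescence after 30 min at room temperature.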
# [9] = target: Bile acid receptor (Homo sapiens) (UniProt Q96RI1); experiment: qHTS assay to identify small molecule antagonists of the farnesoid-X-receptor (FXR) signaling pathway (AID 743217; active = well fitted inhibition curve with a large enough effect in the signal ratio in the repeat runs, not every such curve was filed as active; inconclusive = weak or mixed curves, or effect the other way; inactive = no such curve, though single readings can be large or run the other way; the % refers to the signal ratio; as to activity change, negative = inhibition: % is scaled to controls: 0 for no effect and ±100 for the full control effect); details: HEK293T FXR-UAS-bla, beta-lactamase ratio, CDCA-stimulated, 16 h; activity change, negative = inhibition: at 62.6 µM (top of the series) unless noted
# UniProt Q96RI1, sequence (Q96RI1 whole entry, looked up): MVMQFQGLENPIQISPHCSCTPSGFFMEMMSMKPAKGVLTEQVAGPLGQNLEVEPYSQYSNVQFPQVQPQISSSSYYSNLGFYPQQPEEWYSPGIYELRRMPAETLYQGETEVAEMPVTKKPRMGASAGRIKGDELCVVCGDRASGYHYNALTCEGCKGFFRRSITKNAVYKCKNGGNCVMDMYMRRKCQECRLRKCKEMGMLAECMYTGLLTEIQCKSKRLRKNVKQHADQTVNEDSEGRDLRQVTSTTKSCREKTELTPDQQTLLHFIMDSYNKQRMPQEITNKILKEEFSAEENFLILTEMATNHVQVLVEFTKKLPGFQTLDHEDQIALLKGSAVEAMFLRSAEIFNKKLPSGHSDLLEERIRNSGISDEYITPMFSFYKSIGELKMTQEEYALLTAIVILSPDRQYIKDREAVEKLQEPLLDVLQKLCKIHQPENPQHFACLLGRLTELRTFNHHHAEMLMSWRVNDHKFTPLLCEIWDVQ
# Procedure, shortened: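 Antagonist mode against 50 uM (final) chenodeoxycholic acid stimulation in FXR-bla HEK 293T cells, 16 h at 37 °C. Inhibition detected as reduced beta-lactamase activity via LiveBLAzer B/G FRET fluorescence after 2 h at room temperature.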
# Potency is read from the fitted curve at half-maximal effect; tags tell the direction and shape of the fitted curve or compound fluorescence and quenching.
compound,measurement,setting,value
CCCCCCCc1ccc(O)cc1,activation,[1],inconclusive: 17.3%
same,Potency,[2],"inconclusive [cytotoxic, partial curve, poor fit]"
same,"ratio activity, negative = inhibition",[3],inconclusive: -30.3%
COP(=O)(OC)SCn1c(=O)oc2cc(Cl)cnc21,Potency,[1],"inconclusive [rising, partial curve]"
same,Potency,[4],"inconclusive [cytotoxic, full curve]"
same,Potency,[5],inactive
same,Potency,[3],"inconclusive [inhibitor, partial curve]"
C=CC(=O)[O][Sn]([CH2]CCC)([CH2]CCC)[CH2]CCC,Potency,[1],"inconclusive [falling, full curve]"
same,Potency,[4],active: 3.09 µM
same,Potency,[6],inconclusive
same,Potency,[5],active: 1.95 µM
same,Potency,[7],"inconclusive [falling, full curve]"
same,Potency,[8],active: 3.47 µM
same,Potency,[3],active: 0.776 µM
same,Potency,[9],inconclusive
OC(c1ccc(Cl)cc1)(c1ccc(Cl)cc1)C(Cl)(Cl)Cl,Potency,[1],"inconclusive [falling, partial curve]"
same,Potency,[4],"inconclusive [cytotoxic, single point]"
same,Potency,[6],inconclusive
same,Potency,[5],"inconclusive [cytotoxic, single point]"
same,"activity change, negative = inhibition",[9],inconclusive: -24.2%
